Data as given in the supplement of paper PMC10681739.
The full ranking holds about 2,700 sequences; the median of “arbitrary fluorescence units” is about 4,100, and the highest 2% start at about 54,000. Some of the results follow.

target: T1, ETS1 (UniProt P14921); experiment: ETS1 binding intensity (PBM fluorescence) (arbitrary fluorescence units); higher = stronger binding; conditions: ETS1 concentration 10 nM
T1 sequence: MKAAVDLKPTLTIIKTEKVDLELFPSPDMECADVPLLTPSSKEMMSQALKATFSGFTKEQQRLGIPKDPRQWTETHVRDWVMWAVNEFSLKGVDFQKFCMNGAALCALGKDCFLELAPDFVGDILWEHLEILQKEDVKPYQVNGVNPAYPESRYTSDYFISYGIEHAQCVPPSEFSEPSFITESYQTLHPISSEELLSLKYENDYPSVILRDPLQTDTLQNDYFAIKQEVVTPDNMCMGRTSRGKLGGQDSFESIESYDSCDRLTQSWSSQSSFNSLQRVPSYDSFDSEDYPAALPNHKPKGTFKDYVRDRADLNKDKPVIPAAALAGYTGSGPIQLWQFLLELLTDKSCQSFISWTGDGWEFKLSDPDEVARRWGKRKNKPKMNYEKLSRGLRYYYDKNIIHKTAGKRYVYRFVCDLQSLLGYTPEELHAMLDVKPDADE
Experimental: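 gcPBM on wild-type 36-bp genomic probes with two neighbouring ETS1 sites (4-24 bp apart). Recombinant human ETS1 (10 nM) was detected with anti-ETS1 antibody fluorescence. Values are medians over 3 replicate spots. The probes sit in constant array flanks that are not printed.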

Sequence | ETS1 binding intensity
TGCTGCTTCCTGGCTCCTGGGGCCCTCGGAAGTCTC | 10000
ACAAGCGAGGAAGCCAGGGTTCAAATCCAGGAAGTC | 229
TGGCCTAATACGGAACTCCATTTCCCGGCGTGCCTC | 320
TGTGGTTATAACTTCCTGTGCTTCCTGTCACTGCAC | 25300
CGTCACTTCCGGCGCCGCGTGAGGCCTTCCGGTGCC | 73900
TTACGGAGTCGCCGGAAGCGGAAGTCGCTGAGGGGT | 8600
GGCAAGGAGTCTTCCTGGAGCCGGAAACAGCAAAGA | 4080
CTGTAGGAAATGATGCTCCCAGCCCAGCTTCCTCAC | 296
AGTAATTTCCTGAAATAAAGCGTGGGAGGAAGTCAT | 8440
CGGGGAGCCAGGAAATATCTCCGGAATCTCACAATG | 885
GGACCTTCCTGTCCAGCTTCTCATACAGGAACTCCT | 14300
TGGCAGGAAGCCTGAGGCATTATTCAGCTTCCTTAG | 388
TCCAGCTCCATTTCCTCCTCCCTTCCTGCCTTTAGT | 4650
GACTATTTACGGAAGTGCAGGCAGGATGAAAGGACT | 2050
TCCAACAGGAAGTGAGAGCAGCTCCTTCCTGCTGCA | 16900
GATGTACACATCCTCCAAATGGCATCCGGCCTAATG | 7710
AGAAACCACATCCTCCTACAGGCATCCTGCTGACAT | 6590
CGGGGCTCCCGGAAGCCGCCCCTTCCGCCAGCTTGC | 4520
ACCCAGCTTCCTGTCCTCCTGGAGACTTCCTGCCTC | 31400
GCATAAAGGAAATAGGAATGGTAACAGGAAATTGAA | 3580
CAAGGCAGGAAGTCCACAAGGCCAACGGAAGGTCCC | 8440
CTGCCAATCACTTCCTGGCTACATCCGGAGTGACAC | 15900
TCTCGCACCGGATTCGGCCCCCACTTCCGAGCCCTG | 492
TGTGTGGCAGCGCTTCCGCAGGAAGTCAACAGAGCA | 5310
GAACAGCCCAGGATGTTTCGGCTTCCGTGCTGCTGA | 928

Sequence | ETS1 binding intensity
CGGCAGGCGGAAGCCAGACCCGGCGGAACTACCGTG | 2020
CTGCAGGAAGAGCCGCCCTTGGACGGTTTCCTGGAG | 597
GGCTTCAGGATGCATTGACAATTAAAGGAAGTCAGA | 275
CGTGGCTTCCGAGGAGAGGGCAAGAACGGAAGCGAG | 827
TGTGATACTTCCTGTCCTCGTCTGTTTCCTCTGACC | 44100
CAGTGGTGACATCCGAGTGTGCTTCCTCAGTGCCAC | 1100
ACCTAGCGGAAGACCCAGAGCCCCAGGAAGCCGCCT | 396
AGACTTCCGTTCTGGCTCTCACTCTAGTTTCCTGGT | 67500
AAGGAGACCGGAAGAAGGTCTGGGGAAGTTATTTGG | 14600
AGGAGGAATGGCAGGAAGAGGAAGTGAAACCGACAA | 1690
GCTCCCGGGCAGGAAGTAGTGTTCCGGGTGGGGTAG | 13200
CGACACCGGAAATGTGGCGCCCGCGCTTCCGCCTGC | 31500
GGCGATCCGGCAAGGGAGGCTGGCCGCCGGATGGGG | 177
AGGAGGCATTTCCTGATGCCTCCTTCCGGCAACCTT | 11800
GAAAGGAAGCAGCGCTCGGCCGCCTGTGGGATGTGG | 258
TCAATTTCTCATTTCCCTGGAGGAAGCCCATAAAGT | 217
AAGCAGGAAACCTCCCCTTTATGTGGCAGGAAGCTG | 512
TGTGAGCAGGAAGCGTTTACATTTAGGAAATGCTTT | 1400
TTGCCGGAAGTCGTGGCGCGCGCACAGGGGATGTGT | 17800
CTTTAGTTTCATTTCCTCCCAGGATGTACTGCTCTT | 5310
AGAGGTTTCCGCTGTGGGATTGCCTATATCCTGCCC | 16300
TAGCCTCGACATCCTACCTCAACTTCCGCAGTAGCT | 4430
AGCACTCCGGAAACAGCCCTTATGAGGAAACGGCAT | 9720
GCAGCAGGAAACACACACAGACCACAGGATGCATAA | 1690
CCTGAGGACACAGGAAGAGACGGAAGGAGCACCTTG | 1290

Sequence | ETS1 binding intensity
AGTTCATCCGCGGCCCTGAGGCCTGTGGGAAACGTA | 233
GGAAGGGGAGGAAGTACGTGCTGCGGAAGGAGGAGA | 1970
GTGAAACCACATCCTGGCTCAGCTTCCTCCCTTTCC | 9520
TGGGGAACAGGAAGTCAGTGGAGGGAAGTTTGTGGG | 11100
AGGGAGTAAAACAGGAAACGGGAAGGCAAGGGAATC | 6530
GTGAGCCATCCTGACTCACTGATTACATCCGGCATT | 2230
GCAGACAGGAAGGCGTGGTGTGGACAGGATGCCCAT | 2720
CAAGCAGGAGGAAGTCAGCACAGAGGAAACAGAGCT | 978
AAGAGCAGTTTGTTTCCTGAGGAAGCTTTTGCGGTT | 484
CACAGAGAACCGGAAGTCCCAGATCCGGTCGGCTCG | 38700
ACCCACGCGGAAGGGGAGGAGGGGTTTCCTGACTGA | 262
ACTTGACATTTCCTGCCTCCTGTTTCCTCATCACTC | 22500
TGTGTGGAGGAAGCGTGGTGAAGAGGAAGTCACAGA | 444
TAACTGGGCAACAGGAAGACATCCTGCCTCTTGTAC | 2520
AGACAGGAAGTGATCGAAGCCACCAAAGGATGTGTT | 14300
CTTTAAGCCGGAACAGGCAGGGCGGAAGTGCGTCAC | 2940
CAATAGGAGGCCGGAAGCATCGGAAGTCACATGCTG | 10200
CCTAGCCACTTCCGGCGCGCGATTTCCCGTGAAGTC | 45700
CTGTTAGCCAGGATGGTCTCGATTTCCTGACCTCAT | 404
AAGTCAAAGCCACTTCCTTTTCCTGGTCCCCAGTCG | 7570
CTGCGCGGGGCGGAAGCGGCCGGGAAGCCACGTGTC | 3050
CCCTCCCCTTCCTGCCTGCCCTTCTTCCGGGGCACC | 8020
GGGAGGCGGAAAGGGGCGGGACCACTTCCGGCCTAG | 22100
GCACCCGCTTCCTTTCTGCGTGGGCTTCCTTTCTGC | 12700
GAGACTACGGAAGCCCAGTAAGACAGGAAGGGCGGG | 531

Sequence | ETS1 binding intensity
TTGTAAGCCAGGATGGTCTCGATTTCCTGACCTCGT | 263
CTATCTTCCTGAATTACATGTGGCCCTCTTCCTGTG | 1900
GGGGTGGTTCCGCTGAGGCGTGGTAGGAAGTGGCTG | 778
TCCGGGCCTTCCTGGGCCCGTCTGAGGAAACTTGCT | 530
TCAGACAGGAAGCAAAAGTCACTGCATCCTGAGCAC | 4490
AAGTAGAAGCGGAAGTAGTCGCCTTCCTGGGATTGT | 15200
AGAGGCAGGAAGCCAGAACACTGCATTTCCTGTGTC | 6050
TGGCCCCCGGAACTCCTCCGTGCACTTCCGGCGGAC | 7620
CTGGAGCGGAAGTGGAGGAGCGGCCGGAAGTAGCCG | 21000
AGTTAACAGGATGATGACTTAGAAGGAAGTGAACCC | 437
CACAGCCCTTCCGCCACCAGCTTCTTCCTGCCCTAC | 4970
CTCCCCACTTCCTCTGGTGGGGCAGGAAGCTGAGTG | 9420
CTACACATCCTTGAAGCCACACTGACATCCTCCTTT | 1630
AAAAAAAAAGGAAGTAGACTCATTTCCGCAGCCCCT | 4700
AAAAGTTGCCCTTCCGGTTATTTCCCTTCCTGTTTG | 21000
GCAGAAGGGAGGAAGAAGCAGGCGGAAGCAGCCGGT | 522
GCTTCAACATCCCATAGTTAGTCATTTCCTCTATTA | 1330
TTGTTAGGAAAATTTCCGCTTCCTGTTGCCAGCCAC | 16200
GCTTGCTTTCCGCCATGATTGTAGGTTTCCTGAGGC | 1350
AGCTACAGGAAAATCTGTGAGTAACTTCCTGACAAG | 549
GCGGCTCACCACATCCTCCTCTTCCTCCCCACTCTG | 3110
GACAGGATGTGCAGCTGCAGCAGAAAGCTTCCTGTC | 10800
CGCACTTCCTGGCGTCGCCTGCGGGGGCGGAAACGC | 24900
AAACGCCGGAAGTCTGACCAGCCTCAGGATGTGCCT | 14200
AAGGGCTGGCAAGGAAGCCACATCCTCATACAGCTC | 412

Sequence | ETS1 binding intensity
AGCCAGGGCTGCTTCCTTACAGGAAGTGCTTCAGAG | 5170
TAAGATCACAGGAAACAAACCACGGATATGCCAGAA | 972
GCTGGGCTTCCTGCCTGTTCTGCAGCTTCCTGCCAC | 17300
TCCACTTCCCAGCAGCCCTGCTGACTCCGGAAACTG | 1050
TAGTCCTGAAACTTCCTCTGCTTCCTCCTCCTGCCC | 2700
GTGCGGGTAGGTTCCGGTAGCATCCGGGAGACCCGG | 3850
CGACCGGAAGCCGCAGGTGGGTGAAGCGGAAACGCT | 19100
ATAACTTCCTCCACTGTGGGACCCAGAAGGAAGTTA | 7900
ACTGAAGGAAATGAAAATCTCAACGTTTCCTTTATT | 560
CCGTAGGGCGGATGCTCCAGTGACTTCCTGGCCCTA | 3330
CCTGCATCCTGCTCACCGAGTGAGAATTTCCTGTGA | 8500
GCCCAGCTGCTTCCTATAAAAGAGGATGTGAGCTGT | 961
TGGAGCTGCAGGATATTTGTTCTATCCTGTTTACAG | 390
CCAGCGGGACATCCTGCCTCACATCCTGGCAGTTGA | 17100
GCCAGGATGCTGGAGAGTAGGGCAAGCAGGAAGCTG | 533
AGGGAGGGTTTCCTTGCTCTGATTTCCTCTTGGTTA | 1110
GCCGGACCAGGAAAACGCTCCGCTTCCGGCACTGCT | 6370
ATTGCACAGATTAGGAAACGGAAGCATCTGAGTAAC | 270
GCTAATGGGACATCCGCCCATTTTCCGCTGGGTCTG | 11700
GGGAGGGCTCCAGGAAGGTGAGGAAGTAACGGCATC | 260
GGACACAGCCGGAATGTGCAACTTCCGGCAAAAAAC | 13100
GAATGGGTAGGAAGTGCTCTATCAGGAAAAAGGCAA | 512
AGGCGGCGGCGGAAGCGCTGTGGGGAAGTCGAGGCA | 2090
TTCAGCCAAAGGACGGAAGGAAGCTAGGCGTCCGCA | 192
GCCGGCGCGCGCCGGAAGCCGGAAGCGCGGCAGCGG | 9490
